Data taken from paper PMC7261414, “A complex comprising C15ORF41 and Codanin-1: the products of two genes mutated in congenital dyserythropoietic anaemia type I (CDA-I)” (Biochemical Journal, 2020).
These are yes or no findings as the source states them, for the method shown. For part of these data: In cells and extracts the contact can be indirect. Some entries that bind do so weakly or less than the wild type. For part of these data: Sequences can lack the tags named with a protein.

Assays:
[1] = biological target: T1, GFP-tagged C15ORF41 L178Q, U2OS cells (human), Q9Y2V0; experiment: co-IP; GFP-Trap affinity beads, ~0.5 mg of lysate of U2OS cells co-expressing GFP- and RFP-tagged proteins; western blotting with anti-GFP and anti-RFP; conditions: remark: other sources report otherwise
T1 chain: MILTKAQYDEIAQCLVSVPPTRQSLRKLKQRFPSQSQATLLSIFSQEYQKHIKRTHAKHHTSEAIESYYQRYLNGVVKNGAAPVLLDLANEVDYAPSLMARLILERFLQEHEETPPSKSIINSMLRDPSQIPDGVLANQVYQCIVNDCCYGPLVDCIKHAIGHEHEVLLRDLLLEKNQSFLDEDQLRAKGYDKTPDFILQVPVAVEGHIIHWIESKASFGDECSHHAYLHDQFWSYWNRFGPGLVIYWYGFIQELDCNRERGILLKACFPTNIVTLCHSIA

[2] = biological target: T2, GFP-tagged C15ORF41 Y94C, U2OS cells (human), Q9Y2V0; experiment: as above; conditions: remark: other sources report otherwise
T2 chain: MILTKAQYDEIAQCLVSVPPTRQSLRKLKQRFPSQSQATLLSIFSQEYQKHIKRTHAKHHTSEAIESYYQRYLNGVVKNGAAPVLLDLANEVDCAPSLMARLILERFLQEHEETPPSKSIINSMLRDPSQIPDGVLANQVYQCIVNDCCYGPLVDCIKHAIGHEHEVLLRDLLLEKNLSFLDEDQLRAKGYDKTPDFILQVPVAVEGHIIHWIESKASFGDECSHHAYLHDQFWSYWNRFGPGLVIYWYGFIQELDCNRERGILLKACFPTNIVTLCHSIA

[3] = biological target: T3, C15ORF41, endogenous in HEK293 cells (human (endogenous in HEK293)) (UniProt Q9Y2V0); experiment: SEC; ~20 mg whole-cell HEK293 extract on Superdex 200 16/60 in 50 mM Tris pH 7.5, 150 mM NaCl, 5% glycerol, 1 mM DTT, 0.03% Brij 35; fractions blotted for C15ORF41 and Codanin-1
T3 sequence: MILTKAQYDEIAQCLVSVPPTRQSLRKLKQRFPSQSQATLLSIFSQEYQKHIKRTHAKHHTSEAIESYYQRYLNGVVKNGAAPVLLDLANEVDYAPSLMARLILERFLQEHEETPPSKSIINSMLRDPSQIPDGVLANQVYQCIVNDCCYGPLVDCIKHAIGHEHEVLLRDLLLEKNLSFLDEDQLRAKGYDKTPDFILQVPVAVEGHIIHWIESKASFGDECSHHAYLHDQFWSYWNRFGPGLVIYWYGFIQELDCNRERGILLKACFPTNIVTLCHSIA

B1: RFP-tagged Codanin-1, U2OS cells, Q8IWY9 1-1227 (protein)
chain: MAAVLESLLREEVSVAAVVRWIARSTQGSEDNAGEAAALSSLRALRKEFVPFLLNFLREQSSRVLPQGPPTPAKTPGASAALPGRPGGPPRGSRGARSQLFPPTEAQSTAAEAPLARRGGRRRGPGPARERGGRGLEEGVSGESLPGAGGRRLRGSGSPSRPSLTLSDPPNLSNLEEFPPVGSVPPGPTGTKPSRRINPTPVSEERSLSKPKTCFTSPPISCVPSSQPSALDTSPWGLGLPPGCRSLQEEREMLRKERSKQLQQSPTPTCPTPELGSPLPSRTGSLTDEPADPARVSSRQRLELVALVYSSCIAENLVPNLFLELFFVFQLLTARRMVTAKDSDPELSPAVLDSLESPLFQSIHDCVFFAVQVLECHFQVLSNLDKGTLKLLAENERLLCFSPALQGRLRAAYEGSVAKVSLVMPPSTQAVSFQPETDNRANFSSDRAFHTFKKQRDVFYEVLREWEDHHEEPGWDFEKGLGSRIRAMMGQLSAACSHSHFVRLFQKQLLQMCQSPGGAGGTVLGEAPDVLSMLGADKLGRLWRLQERLMAPQSSGGPCPPPTFPGCQGFFRDFILSASSFQFNQHLMDSLSLKIQELNGLALPQHEPNDEDGESDVDWQGERKQFAVVLLSLRLLAKFLGFVAFLPYRGPEPPPTGELQDSILALRSQVPPVLDVRTLLQRGLQARRAVLTVPWLVEFLSFADHVVPLLEYYRDIFTLLLRLHRSLVLSQESEGKMCFLNKLLLLAVLGWLFQIPTVPEDLFFLEEGPSYAFEVDTVAPEHGLDNAPVVDQQLLYTCCPYIGELRKLLASWVSGSSGRSGGFMRKITPTTTTSLGAQPSQTSQGLQAQLAQAFFHNQPPSLRRTVEFVAERIGSNCVKHIKATLVADLVRQAESLLQEQLVTQGEEGGDPAQLLEILCSQLCPHGAQALALGREFCQRKSPGAVRALLPEETPAAVLSSAENIAVGLATEKACAWLSANITALIRREVKAAVSRTLRAQGPEPAARGERRGCSRACEHHAPLPSHLISEIKDVLSLAVGPRDPDEGVSPEHLEQLLGQLGQTLRCRQFLCPPAEQHLAKCSVELASLLVADQIPILGPPAQYRLERGQARRLLHMLLSLWKEDFQGPVPLQLLLSPRNVGLLADTRPREWDLLLFLLRELVEKGLMGRMEIEACLGSLHQAQWPGDFAEELATLSNLFLAEPHLPEPQLRACELVQPNRGTVLAQS
binding [1]: binds
binding [2]: binds

B2: Codanin-1, endogenous in HEK293 cells (protein, UniProt Q8IWY9 1-1227)
chain: MAAVLESLLREEVSVAAVVRWIARSTQGSEDNAGEAAALSSLRALRKEFVPFLLNFLREQSSRVLPQGPPTPAKTPGASAALPGRPGGPPRGSRGARSQLFPPTEAQSTAAEAPLARRGGRRRGPGPARERGGRGLEEGVSGESLPGAGGRRLRGSGSPSRPSLTLSDPPNLSNLEEFPPVGSVPPGPTGTKPSRRINPTPVSEERSLSKPKTCFTSPPISCVPSSQPSALDTSPWGLGLPPGCRSLQEEREMLRKERSKQLQQSPTPTCPTPELGSPLPSRTGSLTDEPADPARVSSRQRLELVALVYSSCIAENLVPNLFLELFFVFQLLTARRMVTAKDSDPELSPAVLDSLESPLFQSIHDCVFFAVQVLECHFQVLSNLDKGTLKLLAENERLLCFSPALQGRLRAAYEGSVAKVSLVMPPSTQAVSFQPETDNRANFSSDRAFHTFKKQRDVFYEVLREWEDHHEEPGWDFEKGLGSRIRAMMGQLSAACSHSHFVRLFQKQLLQMCQSPGGAGGTVLGEAPDVLSMLGADKLGRLWRLQERLMAPQSSGGPCPPPTFPGCQGFFRDFILSASSFQFNQHLMDSLSLKIQELNGLALPQHEPNDEDGESDVDWQGERKQFAVVLLSLRLLAKFLGFVAFLPYRGPEPPPTGELQDSILALRSQVPPVLDVRTLLQRGLQARRAVLTVPWLVEFLSFADHVVPLLEYYRDIFTLLLRLHRSLVLSQESEGKMCFLNKLLLLAVLGWLFQIPTVPEDLFFLEEGPSYAFEVDTVAPEHGLDNAPVVDQQLLYTCCPYIGELRKLLASWVSGSSGRSGGFMRKITPTTTTSLGAQPSQTSQGLQAQLAQAFFHNQPPSLRRTVEFVAERIGSNCVKHIKATLVADLVRQAESLLQEQLVTQGEEGGDPAQLLEILCSQLCPHGAQALALGREFCQRKSPGAVRALLPEETPAAVLSSAENIAVGLATEKACAWLSANITALIRREVKAAVSRTLRAQGPEPAARGERRGCSRACEHHAPLPSHLISEIKDVLSLAVGPRDPDEGVSPEHLEQLLGQLGQTLRCRQFLCPPAEQHLAKCSVELASLLVADQIPILGPPAQYRLERGQARRLLHMLLSLWKEDFQGPVPLQLLLSPRNVGLLADTRPREWDLLLFLLRELVEKGLMGRMEIEACLGSLHQAQWPGDFAEELATLSNLFLAEPHLPEPQLRACELVQPNRGTVLAQS
binding [3]: binds
